# According to the supplement of paper PMC8748497:
# This is one part of the list.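 How the source made its calls: active = GRHL reporter fold change of at least 2 over DMSO at 10 µM; inactive = below 2-fold.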 Most values come without repeats; read them as rough.
# System: HEK293 GRHL-luciferase reporter
# Experiment: GRHL luciferase reporter activity, fold change over DMSO control; higher = stronger GRHL reporter activation
# Conditions: 10 µM; 24 h
# 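Further: stable HEK293 line carrying repeated GRHL consensus sites upstream of a minimal promoter driving luciferase, luminescence read 24 h post-treatment, normalized to 0.5% DMSO vehicle wells.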
row,Structure (SMILES),GRHL luciferase reporter activity
1,OC[C@H]1O[C@H](O[C@]2(CCl)O[C@H](CCl)[C@@H](O)[C@@H]2O)[C@H](O)[C@@H](O)[C@H]1Cl,inactive: 1.03
2,COc1cc(OC)c2c(=O)c(-c3ccccc3OC)coc2c1,inactive: 1.09
3,COc1ccccc1N1CCN(CCCNc2cc(=O)n(C)c(=O)n2C)CC1,inactive: 1.07
4,NCCCCCC(=O)O,inactive: 0.991
5,O=C(O)C1=C(CSc2nnnn2CS(=O)(=O)O)CS[C@@H]2[C@H](NC(=O)[C@H](O)c3ccccc3)C(=O)N12,inactive: 0.908
6,CCOc1ccc2ccccc2c1C(=O)N[C@@H]1C(=O)N2[C@@H]1SC(C)(C)[C@@H]2C(=O)O,inactive: 0.918
7,CCOC(=O)[C@H](CCc1ccccc1)N[C@@H](C)C(=O)N1[C@H](C(=O)O)C[C@H]2CCCC[C@@H]21,inactive: 0.954
8,Cn1c(=O)c2c(ncn2CCO)n(C)c1=O,inactive: 0.84
9,CCOCCOc1ccccc1C(N)=O,inactive: 1.08
10,CC1(C)CCC[C@]2(C)[C@H]3CC(=O)O[C@]3(C)CC[C@@H]12,inactive: 0.947
11,NS(=O)(=O)c1cc(C2(O)NC(=O)c3ccccc32)ccc1Cl (stereo not given),inactive: 0.957
12,O=C(O)CN(CCN(CC(=O)O)CC(=O)O)CCN(CC(=O)O)CC(=O)O,inactive: 0.885
13,Cc1oncc1C(=O)Nc1ccc(C(F)(F)F)cc1,inactive: 1.45
14,CO[C@@]1(NC(=O)CSCC#N)C(=O)N2C(C(=O)O)=C(CSc3nnnn3C)CS[C@@H]21,inactive: 1.01
15,CC1CCc2c(N3CCC(O)CC3)c(F)cc3c(=O)c(C(=O)O)cn1c23 (stereo not given),inactive: 0.857
